# No constants are given. Whether binding was seen depends on the method and setting. For some assays here: In cells and extracts the contact can be indirect. Some binding calls cover weakened binding; strength is not graded here.
# T1: HPLLVSGR
# T1 sequence (peptide): HPLLVSGR
# T2: KDCRSFKA
# T2 sequence (peptide): KDCRSFKA
# T3: NFHPLLVS
# T3 sequence (peptide): NFHPLLVS
# T4: LVSGRLRI
# T4 sequence (peptide): LVSGRLRI
# T5: IQYKGHCY
# T5 sequence (peptide): IQYKGHCY
# T6: VFHAERIV
# T6 sequence (peptide): VFHAERIV
# T7: KVFHAERI
# T7 sequence (peptide): KVFHAERI
# T8: PLLVSGRL
# T8 sequence (peptide): PLLVSGRL
# T9: VKDCRSFK
# T9 sequence (peptide): VKDCRSFK
# T10: LLVSGRLR
# T10 sequence (peptide): LLVSGRLR
# T11: TVKYLNNL
# T11 sequence (peptide): TVKYLNNL
# T12: CRSFKALS
# T12 sequence (peptide): CRSFKALS
# T13: DCAAVKVF
# T13 sequence (peptide): DCAAVKVF
# T14: FHPLLVSG
# T14 sequence (peptide): FHPLLVSG
# T15: SRLTYSSR
# T15 sequence (peptide): SRLTYSSR
# T16: SNFHPLLV
# T16 sequence (peptide): SNFHPLLV
# T17: RLTYSSRC
# T17 sequence (peptide): RLTYSSRC
# T18: FHQHSILA
# T18 sequence (peptide): FHQHSILA
# T19: FHAERIVR
# T19 sequence (peptide): FHAERIVR
# T20: YKVFHAER
# T20 sequence (peptide): YKVFHAER
# T21: DCRSFKAL
# T21 sequence (peptide): DCRSFKAL
# T22: CSERHFVS
# T22 sequence (peptide): CSERHFVS
# T23: WEVKDCRS
# T23 sequence (peptide): WEVKDCRS
# T24: DQALHSFS
# T24 sequence (peptide): DQALHSFS
# T25: VSGRLRIP
# T25 sequence (peptide): VSGRLRIP
# T26: LY75 tryptic peptide … (896-910)
# T26 sequence (peptide): FPVTFGEECLYMSAK
# T27: LY75 tryptic peptide … (1030-1044)
# T27 sequence (peptide): ELTYSNFHPLLVSGR
# T28: LY75 tryptic peptide … (877 to 890)
# T28 sequence (peptide): ISEWPIDDHFTYSR
# T29: LY75 tryptic peptide … (1099-1109)
# T29 sequence (peptide): QTLQNASETVK
# What was measured:
# [1] = target: T1, HPLLVSGR; test: peptide microarray, 1 µg/mL LY75_A1, anti-human IgG Alexa 647
# [2] = target: T2, KDCRSFKA; test: as above
# [3] = target: T3, NFHPLLVS; test: as above
# [4] = target: T4, LVSGRLRI; test: as above
# [5] = target: T5, IQYKGHCY; test: as above
# [6] = target: T6, VFHAERIV; test: as above
# [7] = target: T7, KVFHAERI; test: as above
# [8] = target: T8, PLLVSGRL; test: as above
# [9] = target: T9, VKDCRSFK; test: as above
# [10] = target: T10, LLVSGRLR; test: as above
# [11] = target: T11, TVKYLNNL; test: as above
# [12] = target: T12, CRSFKALS; test: as above
# [13] = target: T13, DCAAVKVF; test: as above
# [14] = target: T14, FHPLLVSG; test: as above
# [15] = target: T15, SRLTYSSR; test: as above
# [16] = target: T16, SNFHPLLV; test: as above
# [17] = target: T17, RLTYSSRC; test: as above
# [18] = target: T18, FHQHSILA; test: as above
# [19] = target: T19, FHAERIVR; test: as above
# [20] = target: T20, YKVFHAER; test: as above
# [21] = target: T21, DCRSFKAL; test: as above
# [22] = target: T22, CSERHFVS; test: as above
# [23] = target: T23, WEVKDCRS; test: as above
# [24] = target: T24, DQALHSFS; test: as above
# [25] = target: T25, VSGRLRIP; test: as above
# [26] = target: T26, LY75 tryptic peptide … (896-910); test: pull down of tryptic LY75 peptides on antibody-coupled protein A beads, LC-MS/MS
# [27] = target: T27, LY75 tryptic peptide … (1030-1044); test: as above
# [28] = target: T28, LY75 tryptic peptide … (877 to 890); test: as above
# [29] = target: T29, LY75 tryptic peptide … (1099-1109); test: as above
binder,measurement,setting,value
"LY75_A1 monoclonal antibody (antibody, V domains shown, also called LY75A1 antibody; LY75_A1 antibody) VH: EVQLVESGGGLVKPGGSLRLSCAASGFTYSNAWMSWVRQAPGKGLEWVGRIKSKTDGGTTDYAAPVQGRFTISRDDSKNTLYLQMNSLKTEDTAVYYCTIFGVVSFDYWGQGTLVTVSS VL: DVQMTQSPSSLSASVGDRVTITCRASQSISDYLSWYQQRPGKAPNLLIYAASNLKTGVPSRFSGSGSGTDFTLTISTLQPEDFATYYCQQSYRSPWTFGQGTKVEIKR",binding,[1],no binding (tested: 1 µg/mL)
same,binding,[2],no binding (tested: 1 µg/mL)
same,binding,[3],no binding (tested: 1 µg/mL)
same,binding,[4],no binding (tested: 1 µg/mL)
same,binding,[5],no binding (tested: 1 µg/mL)
same,binding,[6],no binding (tested: 1 µg/mL)
same,binding,[7],no binding (tested: 1 µg/mL)
same,binding,[8],no binding (tested: 1 µg/mL)
same,binding,[9],no binding (tested: 1 µg/mL)
same,binding,[10],no binding (tested: 1 µg/mL)
same,binding,[11],no binding (tested: 1 µg/mL)
same,binding,[12],no binding (tested: 1 µg/mL)
same,binding,[13],no binding (tested: 1 µg/mL)
same,binding,[14],no binding (tested: 1 µg/mL)
same,binding,[15],binds
same,binding,[16],no binding (tested: 1 µg/mL)
same,binding,[17],no binding (tested: 1 µg/mL)
same,binding,[18],no binding (tested: 1 µg/mL)
same,binding,[19],no binding (tested: 1 µg/mL)
same,binding,[20],no binding (tested: 1 µg/mL)
same,binding,[21],no binding (tested: 1 µg/mL)
same,binding,[22],no binding (tested: 1 µg/mL)
same,binding,[23],no binding (tested: 1 µg/mL)
same,binding,[24],no binding (tested: 1 µg/mL)
same,binding,[25],no binding (tested: 1 µg/mL)
same,binding,[26],binds
same,binding,[27],binds
same,binding,[28],binds
same,binding,[29],binds

# From patent US20160257760A1 (OXFORD BIOTHERAPEUTICS, published 2016)
